# The BET-seq Pho4 binding data (Le et al. 2018)
# The other results are listed elsewhere or left out. The energies were worked out here from pooled read counts, against the library average; single values are noisy.
# Target: T1, Pho4 (S. cerevisiae) (UniProt P07270)
# T1 sequence: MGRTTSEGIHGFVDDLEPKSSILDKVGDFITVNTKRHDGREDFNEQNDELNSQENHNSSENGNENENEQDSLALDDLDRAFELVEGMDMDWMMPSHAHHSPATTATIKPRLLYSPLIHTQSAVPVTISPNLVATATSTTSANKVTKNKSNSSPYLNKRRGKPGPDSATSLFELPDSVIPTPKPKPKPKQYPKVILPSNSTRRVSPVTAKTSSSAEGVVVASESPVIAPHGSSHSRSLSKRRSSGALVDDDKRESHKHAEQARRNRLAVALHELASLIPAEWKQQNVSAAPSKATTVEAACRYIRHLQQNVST
# Assay: relative binding free energy (BET-seq); higher = weaker binding
# Settings: reference: library average
row,Sequence,relative binding free energy
1,TATATCACGTGGTTTC,0.13 kcal/mol
2,AAATGCACGTGAGGAA,0.27 kcal/mol
3,GTAGTCACGTGTGGTA,0.29 kcal/mol
4,TAAGTCACGTGCTTGT,-0.01 kcal/mol
5,TCGTACACGTGGTGTG,-0.16 kcal/mol
6,TGTTTCACGTGTGCTA,0.32 kcal/mol
7,AATTGCACGTGGGATT,-0.03 kcal/mol
8,TGCACCACGTGGGTGG,-0.29 kcal/mol
9,GTATGCACGTGTATCG,0.11 kcal/mol
10,GTTATCACGTGTGTAA,0.14 kcal/mol
11,TAATACACGTGGTAGA,0.01 kcal/mol
12,ATTGGCACGTGTTGAA,0.04 kcal/mol
13,GGGCTCACGTGGTTAG,0.27 kcal/mol
14,TAGAACACGTGTAGTG,-0.11 kcal/mol
15,AGGCTCACGTGGATAG,0.29 kcal/mol
16,ATCTGCACGTGGATGT,-0.03 kcal/mol
17,GGGCCCACGTGTTGGT,-0.01 kcal/mol
18,AATGTCACGTGGGTTC,0 kcal/mol
19,GTAGCCACGTGGAGGT,-0.09 kcal/mol
20,TGGTGCACGTGGCGGA,-0.13 kcal/mol
21,ATCGTCACGTGGGCGT,-0.02 kcal/mol
22,TTTAGCACGTGTTCAT,-0.05 kcal/mol
23,TTTGGCACGTGCTGTG,-0.1 kcal/mol

row,Sequence,relative binding free energy
1,GCAGGCACGTGTGGGG,-0.09 kcal/mol
2,TTTCTCACGTGTGCAG,0.31 kcal/mol
3,CAATTCACGTGAGGGT,0.53 kcal/mol
4,AACTTCACGTGGTGGT,0.28 kcal/mol
5,TATCGCACGTGGCGTG,-0.17 kcal/mol
6,TCAGTCACGTGAGGGG,0.26 kcal/mol
7,CCTGTCACGTGTGGTA,0.02 kcal/mol
8,ATAGACACGTGGTTGG,0.06 kcal/mol
9,CGCTTCACGTGTATGT,0.15 kcal/mol
10,AGTTTCACGTGGAGGA,0.32 kcal/mol
11,AATAACACGTGTGGGA,0.02 kcal/mol
12,GGGTGCACGTGCGGAC,0 kcal/mol
13,TGTCACACGTGTGTGT,0 kcal/mol
14,GTTTTCACGTGAGGCA,0.54 kcal/mol
15,ATATACACGTGGTGTG,-0.06 kcal/mol
16,AAGGTCACGTGTGGTT,0.11 kcal/mol
17,TCTCGCACGTGATGGG,0.01 kcal/mol
18,TTGGACACGTGAATTG,0.45 kcal/mol
19,GAATTCACGTGGGCGT,0.27 kcal/mol
20,CGGTGCACGTGGACGG,-0.04 kcal/mol
21,GATGTCACGTGATGGC,0.32 kcal/mol
22,TTGTTCACGTGACGGG,0.5 kcal/mol
23,AGTGGCACGTGTTAGG,-0.07 kcal/mol

row,Sequence,relative binding free energy
1,TGGCGCACGTGGGGCT,-0.16 kcal/mol
2,TTGAACACGTGGCGGT,0.04 kcal/mol
3,GTAGACACGTGTAGCG,0.05 kcal/mol
4,ACGGGCACGTGTTAGG,-0.15 kcal/mol
5,AGGGCCACGTGAAAGG,0.22 kcal/mol
6,GAGTGCACGTGGGGCT,-0.12 kcal/mol
7,CGTTGCACGTGGTTAG,-0.1 kcal/mol
8,AGCATCACGTGGTGTA,0.01 kcal/mol
9,TAGGGCACGTGAAATT,0.29 kcal/mol
10,AGGGTCACGTGGTGAC,-0.01 kcal/mol
11,GGGGTCACGTGACTTT,0.25 kcal/mol
12,ATGCGCACGTGGTCGT,-0.24 kcal/mol
13,GTTTCCACGTGTGGTT,0.3 kcal/mol
14,GTCGTCACGTGAAATG,0.37 kcal/mol
15,ATTGACACGTGGGGTG,-0.21 kcal/mol
16,ACTGTCACGTGAGTTG,0.26 kcal/mol
17,AAGTACACGTGTAAGT,0.26 kcal/mol
18,TTATACACGTGGTACG,-0.12 kcal/mol
19,GGTAGCACGTGGCTTG,-0.04 kcal/mol
20,GCCGGCACGTGTGTGT,-0.18 kcal/mol
21,GATGTCACGTGGCGGA,0.1 kcal/mol
22,AGAGTCACGTGCAGGT,0.11 kcal/mol
23,TCTCTCACGTGATGGT,0.23 kcal/mol

row,Sequence,relative binding free energy
1,AGATGCACGTGGCGGA,-0.11 kcal/mol
2,TAAGTCACGTGGCATG,-0.01 kcal/mol
3,TGGGCCACGTGGACGT,-0.06 kcal/mol
4,TGTCGCACGTGTGTGG,-0.12 kcal/mol
5,GCAGGCACGTGGAGGA,-0.15 kcal/mol
6,GATGTCACGTGCGTAG,0.09 kcal/mol
7,GTTAACACGTGGTGCG,-0.06 kcal/mol
8,CTCATCACGTGGGGTT,-0.03 kcal/mol
9,TGCGACACGTGATGGA,0.24 kcal/mol
10,TGAGTCACGTGTTGTC,0.19 kcal/mol
11,TTAGTCACGTGTGTGA,0.12 kcal/mol
12,TGGAGCACGTGTTATC,-0.06 kcal/mol
13,TAGTTCACGTGACAGG,0.27 kcal/mol
14,TATAACACGTGGACGG,0.13 kcal/mol
15,CGGGACACGTGATGTT,0.15 kcal/mol
16,ATTGTCACGTGTGCTC,0.15 kcal/mol
17,ATAACCACGTGGGGGG,-0.13 kcal/mol
18,GGTCGCACGTGCTGGT,-0.15 kcal/mol
19,TTATGCACGTGTTTGT,-0.07 kcal/mol
20,GTGATCACGTGTTTCG,0.26 kcal/mol
21,TGTTACACGTGTGGCA,0.09 kcal/mol
22,CTTAACACGTGGCAGT,0.25 kcal/mol
23,ACGGTCACGTGTATGG,0.05 kcal/mol

row,Sequence,relative binding free energy
1,GGTTGCACGTGTAGGA,0.1 kcal/mol
2,TGGAACACGTGGTGGC,-0.02 kcal/mol
3,TAGATCACGTGCAGGG,0.07 kcal/mol
4,GTAGCCACGTGGGGCG,-0.23 kcal/mol
5,AGGGGCACGTGTAGTT,-0.01 kcal/mol
6,GCGTTCACGTGGCATG,0.33 kcal/mol
7,CGTGGCACGTGGTCGG,-0.15 kcal/mol
8,GGTAACACGTGCTTGT,0.08 kcal/mol
9,GTAATCACGTGCCGGT,0.22 kcal/mol
10,TTGCACACGTGTAATT,0.24 kcal/mol
11,GTGCTCACGTGCGGGC,0.19 kcal/mol
12,AGTGTCACGTGATGTC,0.16 kcal/mol
13,GGCATCACGTGGGTAG,0.15 kcal/mol
14,AGGGGCACGTGGGGTG,-0.23 kcal/mol
15,GGGGTCACGTGTCATG,0.2 kcal/mol
16,AAGGGCACGTGCGGTC,-0.09 kcal/mol
17,ATGGTCACGTGGTACA,-0.02 kcal/mol
18,GGCGTCACGTGGGTAA,0.06 kcal/mol
19,GGAGGCACGTGCGGTG,-0.07 kcal/mol
20,GTTTGCACGTGAATCG,0.14 kcal/mol
21,TGGGTCACGTGGATTA,0.15 kcal/mol
22,GCGGACACGTGAGGTG,0.12 kcal/mol
23,TTGGTCACGTGTAGCA,0 kcal/mol
